{"source": "PubChem BioAssay AID686979", "about": "(National Center for Advancing Translational Sciences (NCATS), 2013)", "note": "The whole screen tested about 420,000 compounds, of which about 50,000 (12%) were called active. The inconclusive results got no clear call from the source; some entries with a clear call stand among them for comparison. Calls follow the shape of the dose curve; as a rule, active = well fitted inhibition curve with a large enough effect; inconclusive = small, poorly fitted or top-dose-only effect; inactive = flat fitted curve, though single readings scatter. Potencies of inconclusive entries are left out as doubtful fits. The source holds several records for some structures; these can differ, active in one and inactive in another. % is scaled to controls: 0 for no effect and ±100 for the full control effect; potency is read from the fitted curve at half-maximal effect; tags tell the direction and shape of the fitted curve.", "data": [{"test": "qHTS for Inhibitors of human tyrosyl-DNA phosphodiesterase 1 (TDP1): qHTS in cells in presence of CPT; also: nearly all actives have a fitted effect of over 55% in size", "details": "chicken DT40 Tdp1-/-;hTDP1 cells + 20 nM CPT, ATP luminescence, 48 h; activity change, negative = growth inhibition: at 46.2 µM (top of the series) unless noted", "in_short": "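Cell growth measured by CellTiter-Glo luminescence after a minimum 48 h, 37 C compound exposure with 20 nM CPT in Tdp1-knockout DT40 cells stably expressing hTDP1, seeded 400/well; qHTS titration format.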", "values": [{"compound": "COC(=O)[C@@H]1CCCN1C(=O)c1cnn(-c2ncc3c(n2)-c2ccccc2CCC3)c1C1CC1", "Potency": "inconclusive [inhibitor, single point]"}, {"compound": "O=C1CC(c2ccc(F)cc2)Cc2nc(NCC3CCCO3)ncc21", "note": "(stereo not given)", "Potency": "inconclusive [inhibitor, single point]"}, {"compound": "Cc1ccc(S(=O)(=O)NC(=O)c2cccc(C)c2)cc1", "activity change, negative = growth inhibition": "inactive: 10.9%"}, {"compound": "COc1ccc2cc(C3(C)NC(=O)N(CC(=O)NCCC4=CCCCC4)C3=O)ccc2c1", "note": "(stereo not given)", "Potency": "inconclusive [inhibitor, single point]"}, {"compound": "Oc1ccccc1/C=N/Nc1cc(N2CCCC2)nc(N2CCCC2)n1", "Potency": "active: 11.6 µM"}, {"compound": "C/C(=N\\NC(=O)CC1N=C(Cc2ccccc2)NNC1=O)c1ccc(Cl)cc1Cl", "note": "(stereo not given)", "Potency": "inconclusive [inhibitor, partial curve]"}, {"compound": "O=C(Nc1nc(-c2ccccc2)cs1)c1ccco1", "Potency": "inconclusive [inhibitor, single point]"}, {"compound": "C[C@H](NC(=O)c1cc2cc(Cl)ccc2n1C)C(=O)N[C@@H](C(=O)O)c1ccccc1", "activity change, negative = growth inhibition": "inactive: -3.23%"}, {"compound": "Clc1ccc2c(c1)NC(c1ccncc1)=NC(c1cccs1)=N2", "Potency": "inconclusive [inhibitor, single point]"}, {"compound": "COC(=O)c1c(SC)nc2ccccc2c1OCc1ccc(Cl)cc1", "Potency": "inconclusive [inhibitor, partial curve, poor fit]"}, {"compound": "Cc1ccc2nc(Cl)c3nnnn3c2c1", "Potency": "active: 1.84 µM"}, {"compound": "CCN(CC)S(=O)(=O)c1cccc(C(=O)Nc2ccc(C#N)cc2)c1", "Potency": "inconclusive [inhibitor, single point]"}, {"compound": "CCOC(=O)c1c(C)[nH]c(C)c1C(=O)COC(=O)c1cccs1", "Potency": "inconclusive [inhibitor, single point]"}, {"compound": "CCOC(=O)N1CCC(NC(=O)CS(=O)Cc2nc(-c3ccc(Cl)cc3)oc2C)CC1", "note": "(stereo not given)", "Potency": "inconclusive [inhibitor, single point]"}, {"compound": "COc1ccc(/C=N/Nc2ncc(C(F)(F)F)cc2Cl)cc1OC", "Potency": "inconclusive [inhibitor, single point]"}, {"compound": "FC(F)(F)c1ccccc1CN1CCCC(N2CCN(c3ccccc3)CC2)C1", "note": "(stereo not given)", "Potency": "inconclusive [inhibitor, single point]"}, {"compound": "COc1cc(CNC(=O)c2ccc3nc(CCc4ccccc4)oc3c2)cc(OC)c1OC", "Potency": "active: 20.6 µM"}, {"compound": "COc1ccccc1OCC(O)Cn1c(=N)n(CCN2CCCCC2)c2ccccc21", "note": "(stereo not given)", "Potency": "inconclusive [inhibitor, single point]"}, {"compound": "O=c1[nH]c(SCc2cccc(F)c2)nc2c1CCCC2", "Potency": "inconclusive [inhibitor, single point]"}, {"compound": "Cc1c(C(=O)N2C[C@@H](C)O[C@@H](C)C2)oc2c(F)cccc12", "activity change, negative = growth inhibition": "inconclusive: -30.8% [inhibitor]"}, {"compound": "CCCCn1nnnc1SCC(=O)Nc1sc2c(c1C#N)CCCC2", "Potency": "inconclusive [inhibitor, single point]"}, {"compound": "Cc1cc(=O)oc(C)c1C(=O)N1CCN(C(c2ccccc2)c2ccccc2)CC1", "Potency": "active: 20.6 µM"}, {"compound": "O=C(NC1CCC(=O)N(CCOc2ccccc2)CC1)OCc1ccccc1", "note": "(stereo not given)", "Potency": "inconclusive [inhibitor, single point]"}, {"compound": "C=CCNC(=S)Nc1ccc2nc(C)c(C)nc2c1", "Potency": "inconclusive [inhibitor, single point]"}, {"compound": "Cc1ccc(S(=O)(=O)N(Cc2nc(-c3cccc(C)c3)no2)C2CCCCC2)cc1", "Potency": "inconclusive [inhibitor, single point]"}, {"compound": "Cc1ccc(N(C)C(=O)N2CCN(S(=O)(=O)c3ccc(C)cc3)CC2)cc1", "Potency": "inconclusive [inhibitor, single point]"}, {"compound": "C/C(=N\\Nc1nccnc1Cl)c1ccc(O)c(C)c1", "activity change, negative = growth inhibition": "inactive: 12.2%"}, {"compound": "CCCN(Cc1cc2ccc(C)cc2[nH]c1=O)C(=O)c1ccccn1", "Potency": "inconclusive [inhibitor, partial curve]"}, {"compound": "COc1ccc(-c2noc(C3CCCN(C(=O)c4ccccc4OC)C3)n2)cc1", "note": "(stereo not given)", "Potency": "inconclusive [inhibitor, single point]"}, {"compound": "CC(C)(C)OC(=O)NC(Cc1ccccc1)C(=O)O", "note": "(stereo not given)", "activity change, negative = growth inhibition": "inactive: 4.97%"}, {"compound": "O=C(COCc1cc(-c2ccc3c(c2)OCO3)on1)N1CCN(c2cccc(Cl)c2)CC1", "Potency": "active: 18.4 µM"}, {"compound": "Cc1ccsc1C(=CCCN1CCC[C@@H](C(=O)O)C1)c1sccc1C", "Potency": "inconclusive [inhibitor, single point]"}, {"compound": "Clc1ccc2ccc3cccnc3c2n1", "Potency": "inconclusive [inhibitor, single point]"}, {"compound": "COc1ccccc1C(CNc1nc(C(F)(F)F)nc2ccccc12)N(C)C", "note": "(stereo not given)", "Potency": "inconclusive [inhibitor, single point]"}, {"compound": "CCCCSc1nnc(CSc2ncccn2)n1C", "activity change, negative = growth inhibition": "inactive: 7.57%"}, {"compound": "Cc1cc(N/C=C/C(=O)c2cccc3ccccc23)no1", "Potency": "inconclusive [inhibitor, single point]"}, {"compound": "NC(=O)c1nsc(C(=O)N(CC(=O)NC2CCCCC2)c2ccc(Cl)cc2)c1N", "Potency": "inconclusive [inhibitor, single point]"}, {"compound": "COc1ccccc1C(CNC(=O)c1cccc(S(=O)(=O)NCc2ccccc2)c1)N(C)C", "note": "(stereo not given)", "Potency": "inconclusive [inhibitor, single point]"}, {"compound": "CC(=O)c1cccc(NC(=O)c2cccc3c(-c4cnn(C)c4)coc23)c1", "Potency": "active: 13 µM"}, {"compound": "Cc1c(C(=O)N2CCNCC2)oc2ccccc12", "activity change, negative = growth inhibition": "inactive: 7.86%"}, {"compound": "O=C(N/N=C/c1ccc([N+](=O)[O-])cc1)c1cccs1", "Potency": "inconclusive [inhibitor, partial curve]"}, {"compound": "COc1ccccc1N(Cc1ccccc1)S(=O)(=O)c1cccc(C(=O)NC2CC(C)(C)NC(C)(C)C2)c1", "Potency": "active: 18.4 µM"}, {"compound": "CS(=O)(=O)N(Cc1ccccc1Cl)c1ccc(C(=O)N2CCCC2)cc1", "activity change, negative = growth inhibition": "inactive: -1.18%"}, {"compound": "CCOc1cc(N2CCOCC2)c(OCC)cc1NC(=O)COc1cccc(CC)c1", "Potency": "active: 18.4 µM"}, {"compound": "O=C(OCC(=O)N(CCc1ccccc1)Cc1ccccc1)c1ccccc1[N+](=O)[O-]", "Potency": "inconclusive [inhibitor, single point]"}, {"compound": "COC(=O)c1cc(C(=O)NC(C)C2CC3CCC2C3)cc([N+](=O)[O-])c1", "note": "(stereo not given)", "Potency": "inconclusive [inhibitor, single point]"}, {"compound": "COc1ccc(-c2csc(NC(=O)c3ccc(C(C)(C)C)cc3)c2C(=O)O)cc1", "Potency": "active: 3.66 µM"}, {"compound": "CSC1=NC2(CCN(C(=O)NC3CCCCC3)CC2)N=C1c1ccc(C)cc1", "Potency": "inconclusive [inhibitor, single point]"}, {"compound": "O=C(C1CC1)N1N=C(c2cccc(Br)c2)CC1(O)C(F)(F)F", "note": "(stereo not given)", "Potency": "inconclusive [inhibitor, single point]"}, {"compound": "O=c1cc(-c2ccccc2Cl)oc2c(NS(=O)(=O)c3cc(Cl)cc(Cl)c3O)ccc(O)c12", "Potency": "active: 9.2 µM"}, {"compound": "CCN1CCCC1CN(Cc1cc2ccc(C)cc2[nH]c1=O)C(=S)Nc1ccc(OC)cc1", "note": "(stereo not given)", "Potency": "inconclusive [inhibitor, single point]"}, {"compound": "CCC(CO)Oc1cc(NC(=O)Cc2ccccc2F)c2ncn(C(C)C)c2c1", "note": "(stereo not given)", "activity change, negative = growth inhibition": "inactive: -1.83%"}, {"compound": "Cc1ccc(CSCC(=O)Nc2cc(S(=O)(=O)N3CCOCC3)ccc2OCC(F)(F)F)cc1", "Potency": "inconclusive [inhibitor, single point]"}, {"compound": "CSc1ccccc1NC(=O)C1=CC(c2cccs2)=NS(=O)(=O)N1C", "activity change, negative = growth inhibition": "inactive: -17.3%"}, {"compound": "COCCCNCCOCCOc1ccccc1-c1ccccc1", "Potency": "inconclusive [inhibitor, partial curve]"}, {"compound": "O=C(C1=C[C@H](c2ccc(Br)cc2)C[C@H](OCc2ccc(CO)cc2)O1)N1CCN(Cc2ccc3c(c2)OCO3)CC1", "Potency": "inconclusive [inhibitor, single point]"}, {"compound": "C[C@H](CO)N1C[C@H](C)[C@@H](CN(C)Cc2ccc(C(F)(F)F)cc2)OCc2cnnn2CCCC1=O", "Potency": "active: 25.9 µM"}, {"compound": "O=C(c1cccs1)N1CCN(c2cccc(Cl)c2)CC1", "activity change, negative = growth inhibition": "inactive: -9.97%"}, {"compound": "Cc1noc(-c2ccc(-c3noc(-c4cccc(F)c4)n3)cc2)n1", "activity change, negative = growth inhibition": "inactive: -13.1%"}, {"compound": "NC(=O)C1CCN(C(=O)c2cccc(NC(=O)c3nsc4ccccc34)c2)CC1", "Potency": "inconclusive [inhibitor, single point]"}, {"compound": "CC(C)Oc1cc(F)ccc1-c1cc(C(=O)Nc2cccc(Cl)c2)[nH]n1", "Potency": "active: 18.4 µM"}, {"compound": "CCOC(=O)CC1NCCc2c1[nH]c1ccc(OC)cc21", "note": "(stereo not given)", "activity change, negative = growth inhibition": "inactive: 7.95%"}, {"compound": "O=C(C1COc2ccccc2O1)N1CCN(c2nc3ccc(F)cc3s2)CC1", "note": "(stereo not given)", "Potency": "inconclusive [inhibitor, single point]"}, {"compound": "COc1ccc(N2C(=O)CC(c3cc(OC)c(OC)c(OC)c3)CC2=O)cc1", "Potency": "active: 14.6 µM"}, {"compound": "CC1CCN(C(=O)c2ccc3c(=O)n4c(nc3c2)CCCCC4)CC1", "activity change, negative = growth inhibition": "inactive: -3.88%"}, {"compound": "Cc1cc(F)ccc1NC(=O)CCS(=O)(=O)c1ccc2c(c1)CC(C)N2C(=O)C1CC1", "note": "(stereo not given)", "Potency": "inconclusive [inhibitor, single point]"}, {"compound": "O=S(=O)(c1ccccc1)N1CCN(c2nnc(-c3ccccc3)c3ccccc23)CC1", "Potency": "active: 18.4 µM"}, {"compound": "CSC1=NS(=O)(=O)c2c(C)nn(C)c2S1", "Potency": "inconclusive [inhibitor, partial curve]"}, {"compound": "COc1ccc(/C=C/C(=O)OCC(=O)NCCc2ccccc2)c(OC)c1", "activity change, negative = growth inhibition": "inconclusive: -37.7% [inhibitor]"}, {"compound": "CCN(c1ccccc1)S(=O)(=O)c1ccc(C(=O)NCCc2ccc(S(N)(=O)=O)cc2)cc1", "Potency": "active: 23.1 µM"}]}]}
